Assay results taken from US20230159453A1 (COCRYSTAL PHARMA, INC., priority 2020, published 2023).

These molecules were tested against Noro protease (Norovirus, UniProt Q83883) (assay: Norovirus protease inhibition assay (Noro-Norwalk FRET protease assay)). Details: IC50 (μM), peptide substrate 10 μM, 90 minutes at 37° C., compounds 200 μM to 10.2 nM.

Compound | IC50 [µM]
CC(C)C[C@H](NC(=O)OC(Cc1cccc(Cl)c1)c1cccc(Cl)c1)C(=O)N[C@H](C=O)C[C@@H]1CCNC1=O (stereo partly drawn) [Compound C282, 1,2-Bis(3-chlorophenyl)ethyl ((S)-4-methyl-1-oxo-1-(((S)-1-oxo-3-((S)-2-oxopyrrolidin-3-yl)propan-2-yl)amino)pentan-2-yl)carbamate] | 1
CC(C)C[C@H](NC(=O)OC(Cc1ccccc1)c1ccccc1)C(=O)N[C@@H](C[C@@H]1CCNC1=O)C(=O)C(=O)N1CCNCC1 (some centres unmarked) [Compound C283] | > 200
CC(C)(c1cccc(Cl)c1)C(OC(=O)N[C@@H](Cc1ccccc1)C(=O)N[C@@H](C[C@@H]1CCNC1=O)C(=O)C(=O)NC1CC1)c1ccccc1 (some centres unmarked) [Compound C284] | ≥ 202
CC(C)C[C@H](NC(=O)O[C@@H](c1cccc(F)c1)C(C)(C)c1cccc(Cl)c1)C(=O)N[C@@H](C[C@@H]1CCNC1=O)C(=O)C(=O)NC1CC1 [Compound C285] | 27.1
CC(C)C[C@H](NC(=O)OC(c1cccc(Cl)c1)C(C)(C)c1cccc(Cl)c1)C(=O)N[C@@H](C[C@@H]1CCNC1=O)C(=O)C(=O)NC1CC1 (some centres unmarked) [Compound C286] | 15.2
CCN1CCN(C(=O)C(=O)[C@H](C[C@@H]2CCNC2=O)NC(=O)[C@H](CC(C)C)NC(=O)OC(c2ccccc2)C(C)(C)c2cccc(Cl)c2)CC1 (some centres unmarked) [Compound C287] | > 200
CC1(C)CC(CC(NC(=O)[C@H](CC2CCCCC2)NC(=O)OC(c2cccc(Cl)c2)C(C)(C)c2cccc(Cl)c2)C(=O)C(N)=O)C(=O)N1 (some centres unmarked) [Compound C288] | 119
CCCCC[C@H](NC(=O)OC(c1ccccc1)C(C)(C)c1cccc(Cl)c1)C(=O)N[C@@H](C[C@@H]1CCNC1=O)C(=O)C(=O)NC1CC1 (some centres unmarked) [Compound C289] | 86
O=C(N[C@@H](CC1CCCCC1)C(=O)NC(CC1CC2(CCC2)NC1=O)C(=O)C(=O)NC1CC1)OCc1cccc(Cl)c1 (stereo partly drawn) [Compound C290, 3-Chlorobenzyl ((2S)-3-cyclohexyl-1-((4-(cyclopropylamino)-3,4-dioxo-1-(6-oxo-5-azaspiro[3.4]octan-7-yl)butan-2-yl)amino)-1-oxopropan-2-yl)carbamate] | 93.2
CC(C)C[C@H](NC(=O)OC(c1ccccc1)C1(c2cccc(Cl)c2)CCCCC1)C(=O)N[C@H](C=O)C[C@@H]1CCNC1=O (some centres unmarked) [Compound C291] | 2.5
CC(C)C[C@H](NC(=O)OC(c1ccc(F)cc1)C1(c2cccc(Cl)c2)CC1)C(=O)N[C@@H](C[C@@H]1CCNC1=O)C(=O)C(=O)NC1CC1 (some centres unmarked) [Compound C292] | 90.5
CC(C)C[C@H](NC(=O)OC(c1ccc(Cl)cc1)C1(c2cccc(Cl)c2)CCCC1)C(=O)N[C@H](C=O)C[C@@H]1CCNC1=O (some centres unmarked) [Compound C293] | 8.7
CC(C)C[C@H](NC(=O)OC(c1ccccc1)C1(c2cccc(Cl)c2)CCC1)C(=O)N[C@@H](C[C@@H]1CCNC1=O)C(=O)C(=O)NC1CC1 (some centres unmarked) [Compound C294] | 177
CCC(CC)(c1cccc(Cl)c1)C(OC(=O)N[C@@H](CC(C)C)C(=O)N[C@H](C=O)C[C@@H]1CCNC1=O)c1ccccc1 (some centres unmarked) [Compound C295] | 5.1
CC(C)C[C@H](NC(=O)OC(c1ccccc1)C(C)(C)c1cccc(F)c1)C(=O)N[C@@H](C[C@@H]1CCNC1=O)C(=O)C(=O)NC1CC1 (some centres unmarked) [Compound C296] | 115
CC(C)C[C@H](NC(=O)OC(c1ccccc1)C1(c2cccc(Cl)c2)CCCC1)C(=O)N[C@@H](C[C@@H]1CCNC1=O)C(=O)C(=O)NC1CC1 (some centres unmarked) [Compound C297] | ≥ 217
CC(C)C[C@H](NC(=O)OC(c1ccc(Cl)cc1)C1(c2cccc(Cl)c2)CCCC1)C(=O)N[C@@H](C[C@@H]1CCNC1=O)C(=O)C(=O)NC1CC1 (some centres unmarked) [Compound C298] | ≥ 218
